The full ranking holds about 110,000 compounds; the median of “z-score” is about -0.1, and the highest 2% start at about 2. This is one part of the list. The source made the active and inactive calls.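 How the source made its calls: active means z-score in the third read window above 3 or below -3; inactive means the rest.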
The compounds below were run against Metabotropic glutamate receptor 8 (Rattus norvegicus) (UniProt P70579) (assay: mGluR8 Gi/Go-coupled signaling modulation – cell-based, rat, thallium flux, HTS, primary screen (AID 488969)). Conditions: HEK293 rat mGluR8, GIRK (G protein-gated inwardly rectifying potassium channel) thallium flux, FluoZin2; at 10 µM; stronger effect = higher value; submaximal glutamate (EC20) added with thallium.
Sequence of UniProt P70579 (P70579 whole entry, looked up): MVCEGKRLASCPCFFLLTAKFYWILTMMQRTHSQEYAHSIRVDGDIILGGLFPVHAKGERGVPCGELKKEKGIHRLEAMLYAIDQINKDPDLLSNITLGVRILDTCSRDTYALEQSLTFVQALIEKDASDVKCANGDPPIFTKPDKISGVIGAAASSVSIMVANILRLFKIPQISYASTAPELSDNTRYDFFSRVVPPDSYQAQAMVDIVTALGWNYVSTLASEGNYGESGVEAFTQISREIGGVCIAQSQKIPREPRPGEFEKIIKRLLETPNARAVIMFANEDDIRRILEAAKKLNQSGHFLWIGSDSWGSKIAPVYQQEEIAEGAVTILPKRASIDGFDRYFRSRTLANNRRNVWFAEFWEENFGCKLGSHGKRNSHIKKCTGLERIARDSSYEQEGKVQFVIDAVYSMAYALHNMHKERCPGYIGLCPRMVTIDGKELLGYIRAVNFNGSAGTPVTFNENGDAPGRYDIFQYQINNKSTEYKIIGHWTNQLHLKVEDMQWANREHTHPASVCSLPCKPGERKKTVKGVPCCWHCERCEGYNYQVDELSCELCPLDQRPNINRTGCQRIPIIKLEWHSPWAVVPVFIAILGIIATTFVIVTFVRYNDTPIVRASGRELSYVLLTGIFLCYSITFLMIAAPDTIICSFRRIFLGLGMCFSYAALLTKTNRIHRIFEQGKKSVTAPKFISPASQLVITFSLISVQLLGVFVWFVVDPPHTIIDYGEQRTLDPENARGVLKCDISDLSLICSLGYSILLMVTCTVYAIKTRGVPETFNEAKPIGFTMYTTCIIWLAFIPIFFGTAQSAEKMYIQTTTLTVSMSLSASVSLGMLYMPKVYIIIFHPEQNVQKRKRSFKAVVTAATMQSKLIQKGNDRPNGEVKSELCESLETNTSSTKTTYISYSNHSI

Structure (SMILES)	z-score
O=C1Nc2ncccc2OC1CCCl (configuration not stated)	-0.25
COc1cccc(NC(=O)CCCn2c(=S)[nH]c3ccccc3c2=O)c1	active: 3.39
CCN(CC)c1ccc(C2Nc3cccc4cccc(c34)N2)c(O)c1	0.865
O=C(O)c1ccc2oc(SCC(=O)N3CCCCC3)nc2c1	0.0845
CCc1nnc(NS(=O)(=O)c2ccc(NC(=S)NC(=O)/C=C/c3ccccc3)cc2)s1	0.0117
CCn1c(CS(=O)Cc2ccc(Cl)cc2Cl)nnc1SCc1c(Cl)cccc1Cl (configuration not stated)	-0.193
NC(=O)CN1C(=O)C2C3c4ccccc4C(c4ccccc43)C2C1=O (configuration not stated)	-0.00416
CNC(=O)C1CC(=O)N(CCCc2ccccc2)C(=Nc2ccccc2)S1 (configuration not stated)	-0.334
O=C(O)C1CC=CCC1C(=O)Nc1ccc(S(=O)(=O)N2CCCc3ccccc32)cc1 (configuration not stated)	0.819
Cc1cccc(NC(=S)NCc2cccs2)c1C	-0.209
COc1cccc(CSc2nc3ccccc3[nH]2)c1	2.68
COc1ccccc1CNC(=O)C1CCC(CNc2c(N3CCOCC3)c(=O)c2=O)CC1 (configuration not stated)	0.611
Fc1cccc(Cn2ccc(-c3ccc4c(c3)OCO4)n2)c1	-0.207
O=C(CO)N/N=C/c1ccc(Cl)cc1	-0.305
Cc1oc(/C=N/NC(=O)CC2(C)OCCO2)cc1Br	-0.17
COC(=O)c1ccc(-c2ccco2)n1Cc1cc(C)ccc1C	-0.359
N#CC1=C(N)N(c2ccccc2)C2=C(C(=O)CCC2)C1c1cccs1 (configuration not stated)	-2.59
CCOC(=O)N1CCC(NC(=O)c2ccc3c(c2)N(Cc2ccccc2)CCS3)CC1	-1.66
Cc1cccc(C)c1OCc1nnc(SCC(=O)NCc2ccccc2)o1	0.511
O=C(Oc1ccccc1N1C(=O)C2CC=CCC2C1=O)c1ccc(Br)cc1 (configuration not stated)	-0.0274
Cc1nnc(NCCc2ccccc2)[nH]c1=O	-0.988
COc1ccc(C)cc1NC(=O)c1cc2c(s1)CCC2	-0.139
COc1ccc(-c2n[nH]c(=S)n2-c2ccc3c(c2)OCCO3)cc1	-0.504

Structure (SMILES)	z-score
Cc1ccc(Cn2nc(C)c(NC(=O)c3cc(C)no3)c2C)cc1	0.245
Cn1nc([N+](=O)[O-])nc1Oc1ccccc1	-0.412
CC(=O)Nc1ccc(Sc2ncccc2C(=O)Nc2ccc(OC(F)(F)F)cc2)cn1	-0.328
COc1ccc(C(=O)Nc2nc(N)n(-c3ccccc3)n2)cc1OC	0.0645
O=C(O)CCc1ccc(-c2ccc(Br)cc2)o1	0.0398
COc1cc(NS(=O)(=O)c2ccc(N/C=C(\C#N)c3nc4ccccc4o3)cc2)nc(OC)n1	-0.199
CCC(C)NC(=O)CC(NS(=O)(=O)c1ccc(Cl)cc1)c1ccco1 (configuration not stated)	0.491
O=C(Nc1ccccc1)c1cc(Cl)nc2ccccc12	0.011
Cc1ccccc1NC(=S)N(CCCN1CCOCC1)Cc1ccccn1	-0.341
CN(/N=C/c1ccc2c(c1)OCO2)c1ccccc1	-0.188
Cc1csc2nc(CCNS(=O)(=O)c3ccc4c(c3)OCCO4)cn12	-0.12
COC(=O)c1ccccc1OCCCN(C)C	0.536
CCC(=O)N1CCc2cc(S(=O)(=O)NCCC(=O)N3CCN(Cc4ccccc4)CC3)ccc21	-0.948
COc1ccc(NC(=O)C2C3C=CC4(CN(Cc5cccnc5)C(=O)C24)O3)c(OC)c1 (configuration not stated)	-0.433
BrC(=C\c1ccccc1)/C=N/N1CCN(Cc2ccccc2)CC1	-0.136
Cc1c(Cl)c(-c2n[nH]c(=S)n2-c2ccccc2)nn1C	-0.29
CC(C)CCN1CC(C(=O)N2CCN(c3ccc(F)cc3)CC2)CC1=O (configuration not stated)	-0.0242
O=c1[nH][nH]c(C(F)(F)F)c1C=NCc1ccccc1Cl	-0.188
Cc1cc(C)cc(C(=O)NCC(=O)OCC(=O)N2CCN(S(=O)(=O)c3ccc4ccccc4c3)CC2)c1	-0.368
CCOc1ccccc1-c1nc(-c2cc3ccc(C)cc3[nH]c2=O)no1	-0.256
CCN(CC)c1ccc(/C=C2/C(=O)N(c3ccc([N+](=O)[O-])cc3)N=C2N2CCOCC2)cc1	0.0375
CN(C)Cc1ccccc1Sc1cccc2ccccc12	0.194
CC(=O)c1c(C)[nH]c(C(=O)Nc2ccc(Cl)c(S(=O)(=O)N3CCOCC3)c2)c1C	1.6

Structure (SMILES)	z-score
CCCCNc1c(N)n(CCCC)c(=O)[nH]c1=O	-0.141
CC(C)Oc1ccc(C(=O)Nc2ccc(N3CCCCC3)cc2)cc1	-0.31
COc1cccc(/C(O)=C2/C(=O)C(=O)N(CCN(C)C)C2c2ccc(Br)cc2)c1 (configuration not stated)	0.33
N#Cc1c2ncn(CC(=O)c3ccc(Br)cc3)c(=O)c2c2n1CCC2	-0.192
CCCCCCCCCCn1c2c(c(=N)c3c1CCC3)CCC2	0.554
COc1ccc(C(C)C)cc1S(=O)(=O)NCc1ccccn1	0.105
CC1=CC(=O)C=C(C)C1=NOS(=O)(=O)c1ccccc1	0.257
CC(C(=O)O)N1C(=O)c2cccc3cccc1c23 (configuration not stated)	0.0263
COC(=O)c1ccc2nc(NC(=O)CN3C(=O)CCC3=O)sc2c1	-0.249
CC1(C(=O)CSc2nc3ccccc3s2)CCC(=O)O1 (configuration not stated)	-0.314
CCc1nnc(NC(=O)CSc2nnc(COc3ccc(C#N)cc3)n2-c2ccccc2)s1	-0.997
O=C(NCCc1ccccn1)c1cc(-c2ccccc2Cl)nc2ccccc12	-0.288
Cc1ccc2nc(SC(C)C(=O)N3CCCC3)[nH]c2c1 (configuration not stated)	-0.517
CC(NC(=O)OCc1ccccc1)C(=O)Oc1cc2oc(=O)cc(-c3ccccc3)c2cc1Cl (configuration not stated)	-0.331
CCOC(=O)Cc1csc(NC(=S)NC(=O)c2ccc(C)cc2)n1	active: 8.13
O=C(CCN1CCc2ccccc2C1)Nc1cccc(F)c1	0.845
COc1cc(NC(=O)c2ccccc2[N+](=O)[O-])ccc1NC(=O)C(C)C	-0.178
COC(=O)CN1C(=O)Nc2ccc(Br)cc2C1c1ccccc1 (configuration not stated)	-0.45
O=C(Nc1ccccn1)c1cc2ccccc2o1	-0.086
CCOc1ccccc1NC(=O)CN(c1ccc(OC)cc1)S(=O)(=O)c1c(C)noc1C	-0.596
O=C(C1CCN(S(=O)(=O)c2ccccc2)CC1)N1CCOCC1	-0.101
NC(=O)Cn1c2[n+](c3ccccc31)CC(O)CS2 (configuration not stated)	-0.0729
C=CCNC(=O)c1c2c(nc3ccccc13)-c1ccccc1CC2	-0.247

Structure (SMILES)	z-score
COc1cc(-c2cc(C(=O)Nc3c(Cl)cc(Cl)cc3Cl)c3ccccc3n2)cc(OC)c1OC	-0.278
O=C(O)C1CCN1C1CCCCC1 (configuration not stated)	0.243
COc1ccc(C2SCC(=O)N2CCCN(C)C)cc1 (configuration not stated)	0.107
CCOC(=O)c1cc(-c2ccccc2)sc1NC(=O)C(C)OC(=O)c1ccncc1 (configuration not stated)	-0.164
O=c1cc(Nc2ccc3c(c2)OCCO3)[nH]c(=O)n1C1CCCCC1	0.565
O=C1CCCCC(=O)N(c2ccccc2)c2ccccc21	-0.0015
COc1ccc(N/C=C\C(=O)c2ccc3c(c2)OCO3)cc1	-0.453
O=C(CCCNS(=O)(=O)c1cccc2nsnc12)N1CCCCC1	0.989
O=C(NCCCN1CCC(Cc2ccccc2)CC1)C1CCC(=O)N1C1CCCC1 (configuration not stated)	-0.556
Cc1ccccc1-c1nc(CN2CCC(C(=O)NCCCN3CCOCC3)CC2)c(C)o1	-0.636
CC1=CC(C)C2C(=O)N(CCC[N+](C)(C)C)C(=O)C2C1 (configuration not stated)	-0.291
CC(C)NC(=O)c1c2c(nc3ccccc13)CCCC2	-0.133
CCC(Nc1nc(-c2ccccc2)nc2ccccc12)C(=O)O (configuration not stated)	-1.78
COc1cc2c(cc1NC(=O)C(C)NCc1ccccc1)oc1ccccc12 (configuration not stated)	0.0909
Cc1[nH]c2ccc(F)cc2c(=O)c1SC(F)(F)C(F)F	-1.3
CN(C)c1ccc(/C=C/C(=O)c2cccc(Br)c2)cc1	-0.756
COc1ccc(C(=O)Nc2ccc(Cl)cc2C(=O)NCc2ccco2)cc1OC	-0.347
Cc1ccccc1N(CC(=O)O)S(C)(=O)=O	-0.0172
O=C(O)CSCC(=O)Nc1ccc(C(=O)O)cc1	0.337
CC1CCCN(C(C(=O)Nc2ccc3c(c2)OCO3)c2ccccc2)C1 (configuration not stated)	-0.134
CC(C)C(=O)N1CCN(c2ccc([N+](=O)[O-])cc2Cl)CC1	-0.961
CCNC(=O)CCC(=O)Nc1cc(Cl)ccc1C	-0.403
CCCCn1c(-c2ccncc2)nc2c1c(=O)[nH]c(=O)n2CC(C)C	0.124

Structure (SMILES)	z-score
CC(C)NC(=O)NC(=O)CSc1nnc(COc2ccccc2Cl)o1	-0.0638
CCOC(=O)CC(=O)Nc1ccc(C)cc1	-0.33
O=C1N=c2ccccc2=C1c1c(O)n(-c2cccc(F)c2)[nH]c1=O	-0.202
CC(C)C(=O)c1cn(CC(=O)NCc2ccco2)c2ccccc12	-0.253
COC(=O)c1ccccc1NC(=S)NC(=O)c1cccc2ccccc12	0.972
COC(=O)Cc1[nH]nc2c1C1(CCSCC1)C(C#N)=C(N)O2	-0.244
Cc1cc(NC(=O)COC(=O)C2CCN(S(=O)(=O)c3cccc(Cl)c3Cl)CC2)no1	0.313
O=C(CC(Nc1cccc(Cl)c1Cl)C(=O)OCC(=O)c1cccs1)c1ccccc1 (configuration not stated)	-0.0748
CCN(CC)C(=O)c1sc2nc(N3CCOCC3)c3c(c2c1N)CCCC3	-0.134
CCn1ncc(C(=O)Nc2cc(C)on2)c1C	-0.0482
O=C(COc1ccc2ccccc2c1)NN1C(=O)c2ccccc2C1=O	0.492
Cc1ccc(S(=O)(=O)N2CCC(C(=O)N(C)C3CCS(=O)(=O)C3)CC2)cc1 (configuration not stated)	-1.02
CCOC(=O)c1ccc(NC(=O)CN2C(=O)CCC2=O)cc1	-0.113
CCCC(=O)NC(=S)Nc1ccc(Cl)cn1	0.131
COc1ccc(C(=O)Nc2ccc(N3CCN(C(=O)C(C)C)CC3)cc2)cc1[N+](=O)[O-]	0.462
Cc1ccc(C)c(S(=O)(=O)NC(CCC(N)=O)C(=O)O)c1 (configuration not stated)	0.144
O=C(c1ccccc1)c1ccc2ccccc2n1	-0.0792
O=C(c1ccccc1)N1CCN(c2ncnc3sc4c(c23)CCC4)CC1	-0.295
CCc1ccccc1NC(=O)CSC1=C(C#N)C(c2ccc3c(c2)OCO3)C2=C(CCCC2=O)N1 (configuration not stated)	-0.583
C=CCn1c(SCC(=O)N2CCc3ccccc3C2)nc2ccccc2c1=O	-2.34
